# Laboratory results: the supplement of paper PMC4466236
# The full ranking holds about 33,000 sequences; the median of “E-score (dimensionless, -0.5 to 0.5)” is about -0.058, and the highest 2% start at about 0.35. Some of the results follow.
# Test system: MvaT
# Test: PBM 8-mer E-score (mean of HK and ME arrays) (E-score (dimensionless, -0.5 to 0.5)); higher = stronger relative binding preference; most listed sequences are background and not binding sites
# Procedure: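 Protein binding microarray: GST-tagged full-length MvaT (P. aeruginosa PAO1) bound to two universal double-stranded 60-mer arrays (ME and HK), each with a constant 25-mer primer and a variable 35-mer region covering all 8-mers. The 8-mer E-score (rank-based, range -0.5 to 0.5, >0.45 = specific binding) is the mean of the two arrays.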
row,Sequence,PBM 8-mer E-score
1,ATGTGGCG,-0.0601
2,GCCCTCGC,-0.307
3,GTGTATAA,0.202
4,CCCGGGCC,-0.366
5,AGCCTCCC,-0.284
6,ATACACTA,0.225
7,GAAACGAC,-0.152
8,AAAAAAAC,0.169
9,ACCCCGTA,-0.154
10,GCTGCACA,-0.00473
11,ACTTGAGG,0.08
12,CAAGGACG,-0.238
13,ACCTAACA,-0.00971
14,AGACTTTA,0.214
15,AGCACAGA,-0.104
16,GAAATCTA,0.0481
17,ATGTCTGG,-0.153
18,AGAATTCT,0.318
19,CCTGTCGC,-0.146
20,AGGGAATG,-0.0716
21,AGACAGTG,-0.0148
22,CCTTTTTC,-0.162
23,GTAGTTTA,0.297
24,GAATAGCA,0.0291
25,ATTGTACA,0.265

row,Sequence,PBM 8-mer E-score
1,TTATGCAA,0.259
2,AAGTACGC,-0.0173
3,ACGCTGGC,-0.00461
4,AACAGTAC,0.144
5,CTTGAGGC,-0.134
6,GTGACAGA,-0.202
7,ACTGAACG,-0.0445
8,CAAAGGCC,-0.24
9,ACGGGCCA,-0.128
10,CGCCGGCA,-0.168
11,CCGACCCA,-0.157
12,GACTGTGC,-0.117
13,CCCCTGCG,-0.275
14,TGACTCAA,-0.0294
15,ATCCAAAT,-0.0305
16,GAAAACCA,-0.0697
17,ATCGCATA,0.08
18,ATGGGATA,0.11
19,ACTGCTCA,-0.166
20,GGTCCTTA,-0.169
21,AGATTCCG,-0.0153
22,GCGGGCCC,-0.31
23,CCCTCTTC,-0.285
24,ATTCCCAA,0.13
25,ACATTAAC,0.345

row,Sequence,PBM 8-mer E-score
1,GTTTTTCA,0.0388
2,AGTTCCGC,0.0473
3,ACGAGGAT,-0.159
4,CTCCTTAC,-0.18
5,AGCGTCCT,-0.308
6,GGCAGAAA,-0.0173
7,CGCTAGTC,-0.127
8,CTCGTCTA,-0.0914
9,AAGTACAC,0.0927
10,AAGCAATA,0.269
11,ATAGGCCC,-0.207
12,AACGGCTA,-0.0879
13,GTCCTCAC,-0.194
14,AGTTGGGG,-0.0196
15,CAAAAGGA,-0.0763
16,CGCACATA,0.171
17,AGAGAGCT,-0.165
18,CCAGGCCG,-0.184
19,GACGAACA,-0.0414
20,ATTCAAGA,-0.0191
21,AATTCTGA,0.0908
22,GTCCTCAA,-0.104
23,CGGGTCCC,-0.152
24,GTGAGGGA,0.0164
25,TAAGCACA,0.141

row,Sequence,PBM 8-mer E-score
1,ATACACTC,0.143
2,CTCAAGGC,-0.227
3,CAACGTCG,-0.138
4,GACGCGGA,-0.187
5,ATGTGCTC,-0.000921
6,ATCCCATG,-0.165
7,CCGCATAC,-0.000306
8,GGTCAGCA,-0.214
9,GCGTATAC,0.0771
10,ATCCAGCA,0.00328
11,AGGAGAAC,-0.112
12,CGTTGTAC,-0.0465
13,ATGGAGTA,0.0119
14,CTAATTCA,0.228
15,CGCATGTA,-0.00658
16,CGTACAAG,-0.0572
17,ATGTCGTG,0.0144
18,AGTTATAA,0.43
19,CAGTGAAA,-0.0731
20,ATGTCTGA,-0.0388
21,AAGCTCGA,-0.218
22,ACTGTTAC,0.147
23,AGTTATGC,0.246
24,ACCGCCTA,-0.0872
25,ACAGCACC,-0.0822

row,Sequence,PBM 8-mer E-score
1,CCATTTTC,0.0198
2,CATATTAA,0.418
3,ACAGCCGG,-0.209
4,ACCAAGCA,0.0548
5,GGTTTGGA,-0.178
6,GACCATGC,-0.212
7,GTAATGGA,0.105
8,ACTCCTGG,-0.0912
9,CCGATACG,-0.235
10,CCGTCAGG,-0.209
11,AAGACTTC,0.0628
12,AGCCTGCC,-0.198
13,GGCGCCGA,-0.151
14,AACGAACA,0.0294
15,GAGACCGA,-0.137
16,CAACGTCA,-0.0704
17,TCCAAAAA,0.14
18,CACGTTCG,-0.179
19,CTAGGAGA,-0.11
20,AACCGCGT,-0.133
21,GTACTTAA,0.227
22,CACAGGTC,-0.205
23,ATAGGCCG,-0.00347
24,ATACAAAC,0.305
25,CACGTAGC,-0.14

row,Sequence,PBM 8-mer E-score
1,CATGAACC,-0.181
2,GAATTGGA,-0.102
3,CGTTGCCC,-0.207
4,CCCCTAAG,-0.161
5,TGACTCCA,-0.0409
6,TTAATAAA,0.432
7,ACTAAACA,0.197
8,CGTCATTA,-0.0328
9,AACCAACA,0.2
10,ATCATCCC,-0.0961
11,CGTTTATC,0.128
12,GTCAACCA,0.0444
13,ATGACGAC,-0.0497
14,ACCACGCG,-0.11
15,ATAGTGGG,0.0892
16,CGTGGCAG,-0.0994
17,GTTAGGGA,-0.125
18,CGCGTGGA,-0.0505
19,GCCTAGGC,-0.274
20,ACGTCTAG,-0.0697
21,CCTGGCTC,-0.263
22,AGTGACCG,-0.174
23,ACCGTGGA,-0.0746
24,CAGTAAGA,0.117
25,CCGACGAA,-0.1

row,Sequence,PBM 8-mer E-score
1,ACTCACGG,-0.0293
2,AGTGGTGC,-0.111
3,GCCTGACC,-0.304
4,AGGTGAGC,-0.188
5,ACCCCCTG,-0.329
6,CAACTGGG,-0.206
7,GATCCCCA,-0.375
8,CGAATCTA,-0.144
9,TGGCAGAA,-0.0937
10,CCCTGTTC,-0.223
11,CTTCCAAG,-0.0921
12,GTTGCATA,0.0505
13,ATCTCGCG,-0.00457
14,GAGCACAC,-0.11
15,ACTGTTTA,0.254
16,AGTCTCAG,-0.159
17,ATCTACTA,0.127
18,AAGCCATG,-0.168
19,ATGTTAAC,0.363
20,CCAATCGA,-0.0723
21,GATACTTA,0.249
22,AACATAAG,0.298
